Test results published in the supplement of paper PMC7125110.
This sample is rich in variants without activity.

B1: glmS ribozyme (parent)
chain: AUAAAAGCGCCAGAACUACAGAAAUGUAGUUGACGAGGAGGAGGUUUAUCGAAUUUUCGGCGGAUGCCUCCAAA

How the values were obtained:
Details in all cases: with glucosamine-6-phosphate
[1] = variants of: B1; test: self-cleavage kobs at 40 uM GlcN6P; higher = faster cleavage; RNA array
Procedure, shortened: (§1)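 Glucosamine-6-phosphate in HEPES/KCl/Mg(OAc)2 buffer, at 40 μM to 10 mM, was flowed over barcoded ribozyme variants transcribed in situ by E. coli RNA polymerase on sequenced MiSeq chips. Tracking was through a hybridised Cy3 probe at 37 °C. kobs, kcat and KM came from exponential decay fits and weighted Michaelis–Menten fits of normalised per-tile medians.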

[2] = variants of: B1; test: self-cleavage kobs at 640 uM GlcN6P; higher = faster cleavage; RNA array
Procedure, shortened: as §1

[3] = variants of: B1; test: self-cleavage kobs at 160 uM GlcN6P; higher = faster cleavage; RNA array
Procedure, shortened: as §1

[4] = variants of: B1; test: self-cleavage kobs at 2500 uM GlcN6P; higher = faster cleavage; RNA array
Procedure, shortened: as §1

[5] = variants of: B1; test: self-cleavage kobs at 10000 uM GlcN6P; higher = faster cleavage; RNA array
Procedure, shortened: as §1

C10A U30C
< 1e-05 s⁻¹: self-cleavage kobs at 40 uM GlcN6P [1] | self-cleavage kobs at 640 uM GlcN6P [2] | self-cleavage kobs at 160 uM GlcN6P [3] | self-cleavage kobs at 2500 uM GlcN6P [4] | self-cleavage kobs at 10000 uM GlcN6P [5]

G9U G51U
< 1e-05 s⁻¹: self-cleavage kobs at 40 uM GlcN6P [1] | self-cleavage kobs at 640 uM GlcN6P [2] | self-cleavage kobs at 160 uM GlcN6P [3]

G9C G29A
< 1e-05 s⁻¹: self-cleavage kobs at 40 uM GlcN6P [1] | self-cleavage kobs at 640 uM GlcN6P [2] | self-cleavage kobs at 160 uM GlcN6P [3] | self-cleavage kobs at 2500 uM GlcN6P [4] | self-cleavage kobs at 10000 uM GlcN6P [5]

C10A A12G
< 1e-05 s⁻¹: self-cleavage kobs at 40 uM GlcN6P [1] | self-cleavage kobs at 10000 uM GlcN6P [5]

G9U C70A
< 1e-05 s⁻¹: self-cleavage kobs at 40 uM GlcN6P [1] | self-cleavage kobs at 160 uM GlcN6P [3] | self-cleavage kobs at 10000 uM GlcN6P [5]

C10A A15C
< 1e-05 s⁻¹: self-cleavage kobs at 40 uM GlcN6P [1] | self-cleavage kobs at 640 uM GlcN6P [2] | self-cleavage kobs at 160 uM GlcN6P [3] | self-cleavage kobs at 2500 uM GlcN6P [4]

C10G U31A
< 1e-05 s⁻¹: self-cleavage kobs at 40 uM GlcN6P [1] | self-cleavage kobs at 160 uM GlcN6P [3] | self-cleavage kobs at 2500 uM GlcN6P [4]

C10G C19A
< 1e-05 s⁻¹: self-cleavage kobs at 40 uM GlcN6P [1] | self-cleavage kobs at 2500 uM GlcN6P [4]

C10A U30C U45A
< 1e-05 s⁻¹: self-cleavage kobs at 40 uM GlcN6P [1] | self-cleavage kobs at 640 uM GlcN6P [2] | self-cleavage kobs at 160 uM GlcN6P [3] | self-cleavage kobs at 2500 uM GlcN6P [4] | self-cleavage kobs at 10000 uM GlcN6P [5]

G9A U49G
< 1e-05 s⁻¹: self-cleavage kobs at 40 uM GlcN6P [1] | self-cleavage kobs at 640 uM GlcN6P [2] | self-cleavage kobs at 160 uM GlcN6P [3] | self-cleavage kobs at 2500 uM GlcN6P [4]

G9C C11G A12U G40A
< 1e-05 s⁻¹: self-cleavage kobs at 40 uM GlcN6P [1]

C10A G62A
< 1e-05 s⁻¹: self-cleavage kobs at 40 uM GlcN6P [1]

G9U G29U
< 1e-05 s⁻¹: self-cleavage kobs at 40 uM GlcN6P [1] | self-cleavage kobs at 640 uM GlcN6P [2] | self-cleavage kobs at 160 uM GlcN6P [3] | self-cleavage kobs at 2500 uM GlcN6P [4]

G9C U69A
< 1e-05 s⁻¹: self-cleavage kobs at 40 uM GlcN6P [1] | self-cleavage kobs at 640 uM GlcN6P [2]

G9U C10U C71G
< 1e-05 s⁻¹: self-cleavage kobs at 40 uM GlcN6P [1] | self-cleavage kobs at 10000 uM GlcN6P [5]

C10G C11G G35C G37U
< 1e-05 s⁻¹: self-cleavage kobs at 40 uM GlcN6P [1] | self-cleavage kobs at 2500 uM GlcN6P [4]

C10G A42U
< 1e-05 s⁻¹: self-cleavage kobs at 40 uM GlcN6P [1] | self-cleavage kobs at 640 uM GlcN6P [2] | self-cleavage kobs at 160 uM GlcN6P [3] | self-cleavage kobs at 2500 uM GlcN6P [4] | self-cleavage kobs at 10000 uM GlcN6P [5]

C10G G41U C61G
< 1e-05 s⁻¹: self-cleavage kobs at 40 uM GlcN6P [1] | self-cleavage kobs at 640 uM GlcN6P [2] | self-cleavage kobs at 2500 uM GlcN6P [4]

C10G C16G
< 1e-05 s⁻¹: self-cleavage kobs at 40 uM GlcN6P [1] | self-cleavage kobs at 160 uM GlcN6P [3] | self-cleavage kobs at 2500 uM GlcN6P [4] | self-cleavage kobs at 10000 uM GlcN6P [5]

C10G A33C G59C C70A
< 1e-05 s⁻¹: self-cleavage kobs at 40 uM GlcN6P [1]

G9A U46C
< 1e-05 s⁻¹: self-cleavage kobs at 40 uM GlcN6P [1] | self-cleavage kobs at 160 uM GlcN6P [3] | self-cleavage kobs at 2500 uM GlcN6P [4] | self-cleavage kobs at 10000 uM GlcN6P [5]
